According to PubChem BioAssay AID540317 (National Center for Advancing Translational Sciences (NCATS), 2011):
Among all 390,000 compounds or so, about 2,200 (0.56%) were called active. This list was built around the results that the source calls inconclusive (neither active nor inactive); the mix of calls is not that of the screen. Calls follow the shape of the dose curve; as a rule, active = well fitted inhibition curve with a large enough effect; inconclusive = small, poorly fitted or top-dose-only effect; inactive = no such curve, though single readings can be large or run the other way. A potency beside an inconclusive call is a rough fit, not a confirmed value.

These compounds were tested against Chromobox protein homolog 1 (Homo sapiens) (UniProt P83916) (assay: HTS for Inhibitors of HP1-beta Chromodomain Interactions with Methylated Histone Tails). Details: AlphaScreen HP1-beta / biotin-H3K9me3 peptide binding; series mostly up to 114 µM; activity change, negative = inhibition: at the top concentration.
UniProt P83916, sequence (P83916 whole entry, looked up): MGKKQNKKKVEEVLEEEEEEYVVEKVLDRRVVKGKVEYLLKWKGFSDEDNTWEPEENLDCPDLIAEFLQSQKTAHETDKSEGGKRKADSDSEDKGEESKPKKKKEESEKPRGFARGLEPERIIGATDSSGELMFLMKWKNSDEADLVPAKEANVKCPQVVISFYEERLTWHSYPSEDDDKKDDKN
Outline: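 AlphaScreen: HP1-beta (50 nM) preformed 30 min with biotin-H3(1-18)K9me3 peptide (50 nM) in PBS pH 7.4, 0.01% Tween-20. Compound added for 30 min at RT, then streptavidin donor/nickel chelate acceptor beads (10 ug/mL) for 30 min.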
Also: nearly all actives have a fitted effect of over 70% in size.
Potency is read from the fitted curve at half-maximal effect; tags tell the direction and shape of the fitted curve.

| Compound | Potency | activity change, negative = inhibition |
| --- | --- | --- |
| O=C(CN1CCCCC1)Nc1ccc(Br)cc1[N+](=O)[O-] | inconclusive: 15.8 µM [inhibitor, partial curve, poor fit] | – |
| COc1cc(/C=C2\SC(c3ccc(C)cc3)=NC2=O)cc(OC)c1OC | inconclusive: 31.6 µM [inhibitor, partial curve] | – |
| COC(=O)C1=C(C)N(Cc2ccc(C)cc2)C(=O)/C1=C\c1ccc(O)c(OC)c1 | active: 22.4 µM | – |
| COc1ccc(C)cc1NC(=O)C(NC(=O)c1cc(OC)c(OC)c(OC)c1)C(C)C (stereo unspecified) | inconclusive: 28.2 µM [inhibitor, full curve] | – |
| COC(=O)c1c(NC(=O)CN2CCC3(O)CCCCC3C2c2ccc(OC)cc2OC)sc(C)c1C (stereo unspecified) | inconclusive: 14.1 µM [inhibitor, partial curve, poor fit] | – |
| O=C(NCCc1ccccc1)c1cccc(Br)c1 | – | inactive: 57.6% |
| COC(=O)c1cccc(NC(=O)c2cccnc2C(=O)O)c1C | inconclusive: 14.1 µM [inhibitor, partial curve] | – |
| COc1cc(OC)c2c(-c3ccccc3)cc(=O)oc2c1C(CCN1CCOCC1)c1ccc(N(C)C)cc1 (stereo unspecified) | active: 17.8 µM | – |
| Cc1cc(=O)oc2c(CN3CC(C)OC(C)C3)c(O)c(Cl)cc12 (stereo unspecified) | inconclusive: 89.1 µM [inhibitor, single point] | – |
| Cc1cc(OCC(=O)N(Cc2sccc2C)C2CCS(=O)(=O)C2)ccc1Cl (stereo unspecified) | – | inactive: 27.9% |
| O=c1[nH]c(N/N=C\c2ccc(F)cc2)nc2ccccc12 | – | inactive: 26.8% |
| CCCNc1ccc(C(=O)OCC)cc1[N+](=O)[O-] | inconclusive: 50.1 µM [inhibitor, partial curve] | – |
| Cc1cc(Nc2cccc(Cl)c2)nc2ccc(NC(=O)c3cccnc3)cc12 | inconclusive: 70.8 µM [inhibitor, partial curve] | – |
| CN(C)CCOCCSc1ccc(Cl)cc1 | inconclusive: 79.4 µM [inhibitor, single point] | – |
| CCN1CCN(C(=S)c2ccc(Cl)cc2)CC1 | inconclusive: 10 µM [inhibitor, full curve] | – |
| C=CCn1c(C)cc(/C([O-])=C(/C(=S)Nc2ccc(OC(F)F)cc2)[n+]2ccc(N(C)C)cc2)c1C | inconclusive: 39.8 µM [inhibitor, partial curve] | – |
| Cn1c(=O)[nH]c(=O)c2c1nc(N(CCO)Cc1ccccc1)n2CCCc1ccccc1 | – | inactive: 57.5% |
| Nc1cnn(Cc2ccccc2F)c1 | inconclusive: 35.5 µM [inhibitor, partial curve] | – |
| CNc1ccc(N=Nc2cccc3ncccc23)cc1 | active: 39.8 µM | – |
| CCOC(=O)C1=C(C)Nc2ccccc2S1 | inconclusive: 50.1 µM [inhibitor, partial curve] | – |
| CC(=O)c1c(C)[nH]c(C(=O)OCC(=O)C(C)(C)C)c1C | – | inactive: 16.3% |
| Cc1ccc(CNC(=O)c2ccc(-n3cccc3)cc2)cc1 | active: 22.4 µM | – |
| COC(=O)COc1ccc(C2Nc3c(Cl)ccc(C(=O)O)c3C3C=CCC32)cc1 (stereo unspecified) | inconclusive: 17.8 µM [inhibitor, full curve] | – |
| Cc1ccc2c(c1)c1ccc3c(c1n2C)C(=O)C=CC3=O | active: 3.16 µM | – |

| Compound | Potency | activity change, negative = inhibition |
| --- | --- | --- |
| CCOC(=O)C(Cc1ccccc1)C(=O)Nc1ccc(N(CC)CC)cc1 (stereo unspecified) | inconclusive: 50.1 µM [inhibitor, single point] | – |
| CCN(c1ccc(NS(=O)(=O)c2cc(Cl)ccc2Cl)cc1)C(C)C | inconclusive: 17.8 µM [inhibitor, full curve, poor fit] | – |
| N#Cc1c2n(c(=S)n(-c3ccccc3[N+](=O)[O-])c1=O)CCCCC2 | – | inactive: -6.86% |
| COc1ccccc1CNC(=O)c1ccc(NS(=O)(=O)c2cccs2)cc1 | – | inactive: 43% |
| O=C(NC(=S)Nc1ccc(S(=O)(=O)NC2CCCCC2)cc1)c1cccs1 | inconclusive: 44.7 µM [inhibitor, partial curve] | – |
| NS(=O)(=O)c1ccc(NC(=O)CSc2nnc(NC3CC3)s2)cc1 | inconclusive: 70.8 µM [inhibitor, partial curve] | – |
| COc1cc(CNc2ccc(N3CCCC3)cc2)ccc1OCc1ccccc1 | inconclusive: 20 µM [inhibitor, full curve, poor fit] | – |
| C#CCOc1ccc(/C=C2/C(=O)ON=C2C)cc1Cl | – | inactive: -4.62% |
| O=C(Cc1cccs1)NCc1cccc(CNC(=O)Cc2cccs2)c1 | – | inactive: 37.8% |
| COc1cc(C(CCN2CCCC(C)C2)c2c(OC)cc(OC)c3c(C)cc(=O)oc23)cc(OC)c1OC (stereo unspecified) | inconclusive: 28.2 µM [inhibitor, single point] | – |
| Cc1cccn2c(=O)c3cc(C#N)c(=O)n(-c4nnc(SCc5ccccc5F)s4)c3nc12 | – | inactive: 57.5% |
| CC(=O)Nc1ccc(S(=O)(=O)N2CCN(Cc3ccccn3)CC2)cc1 | inconclusive: 22.4 µM [inhibitor, full curve, poor fit] | – |
| N=C(N)N1CCc2ccccc21 | – | inactive: 27.6% |
| CCOC(=O)NC(NC(=S)Nc1ccc(OC)cc1)C(Cl)(Cl)Cl (stereo unspecified) | – | inactive: 13.4% |
| O=C(Nc1nnc(-c2ccccc2)s1)C1CCCN(C(=O)c2ccoc2)C1 (stereo unspecified) | inconclusive: 20 µM [inhibitor, full curve] | – |
| Cc1c(C)n(CC(O)CNCCO)c2ccccc12 (stereo unspecified) | inconclusive: 28.2 µM [inhibitor, partial curve] | – |
| c1ccc2c(c1)nnn2Cc1nnc2sc(-c3ccncc3)nn12 | inconclusive: 50.1 µM [inhibitor, partial curve] | – |
| COc1cc(/C=C2/SC(=S)N(C)C2=O)ccc1OC(=O)c1ccco1 | – | inactive: 7.75% |
| Nn1c(SCC(=O)Nc2cccnc2Cl)nnc1-c1ccccc1 | inconclusive: 14.1 µM [inhibitor, partial curve, poor fit] | – |
| Cc1[nH]n(-c2ncc(-c3ccccc3)s2)c(=O)c1C(c1ccc(Cl)cc1)C(C#N)C#N (stereo unspecified) | inconclusive: 22.4 µM [inhibitor, full curve] | – |
| O=C(c1cccnc1)N1CCN(CCCc2ccccc2)CC1 | active: 56.2 µM | – |
| NCCCCCc1nnc(SCc2ccc(Cl)c(Cl)c2)o1 | – | inactive: 17.9% |
| Cc1ccc(NC(=S)Nc2cccc3cnccc23)cc1C | inconclusive: 15.8 µM [inhibitor, full curve] | – |
| Cc1cccc(NC(=O)C2CCN(S(=O)(=O)c3c(C)noc3/C=C/c3ccco3)CC2)n1 | inconclusive: 22.4 µM [inhibitor, partial curve, poor fit] | – |

| Compound | Potency | activity change, negative = inhibition |
| --- | --- | --- |
| Cn1c(N=NC(=O)c2ccccc2)c(O)c2ccccc21 | active: 31.6 µM | – |
| Cc1[nH]c2ccccc2c1C(C[N+](=O)[O-])c1ccco1 (stereo unspecified) | – | inactive: -8.1% |
| COc1cc(C(=S)N2CCN(c3ccccc3Cl)CC2)cc(O)c1O | active: 11.2 µM | – |
| O=C(CCN1C(=O)S/C(=C\c2ccccc2)C1=O)Nc1ccc(S(=O)(=O)Nc2nccs2)cc1 | inconclusive: 50.1 µM [inhibitor, partial curve] | – |
| COc1cc(NS(=O)(=O)c2ccc(Nc3nc(-c4cccc([N+](=O)[O-])c4)cs3)cc2)nc(OC)n1 | inconclusive: 56.2 µM [inhibitor, single point] | – |
| CCn1ccnc1CN(C)C(=O)c1cc(COc2ccc(OC)c3ccccc23)on1 | inconclusive: 25.1 µM [inhibitor, full curve] | – |
| COc1ccccc1CN1CCN(C(=O)c2cccc3ccccc23)CC1 | inconclusive: 17.8 µM [inhibitor, full curve, poor fit] | – |
| O=C(CC1SC(=Nc2ccccc2)N(CCc2c[nH]c3ccccc23)C1=O)Nc1ccccc1F (stereo unspecified) | – | inactive: -10.4% |
| Cc1cc(OCC(=O)NCC2CCC(C(=O)O)CC2)c2c(C)c(Cc3ccccc3)c(=O)oc2c1 (stereo unspecified) | – | inactive: 29.6% |
| CCC(CC)NC(=O)/C=C/c1ccccc1Cl | inconclusive: 39.8 µM [inhibitor, single point] | – |
| COc1ccc(CN2CCN(C(=O)c3cccs3)CC2)cc1Br | inconclusive: 70.8 µM [inhibitor, single point] | – |
| CNCCCOc1ccc(Cl)cc1C(C)(C)C | inconclusive: 35.5 µM [inhibitor, partial curve] | – |
| O=C(COC(=O)CCNS(=O)(=O)c1ccccc1)NC1CC1 | – | inactive: 35.1% |
| C#CCOCCOCCOCCNc1nc(N2CCN(C(=O)[C@H](Cc3ccc(O)cc3)n3cc([C@@H](N)C(C)CC)nn3)CC2)nc(N2CCN(C(=O)[C@H](Cc3cc4ccccc4[nH]3)n3cc([C@@H](N)CC(C)C)nn3)CC2)n1 (stereo partly specified) | inconclusive: 50.1 µM [inhibitor, partial curve] | – |
| CCOC(=O)C1CCN(CC(=O)Nc2ccc(OC)c(Cl)c2)CC1 | inconclusive: 44.7 µM [inhibitor, partial curve, poor fit] | – |
| Fc1ccc(N2CCN(Cc3ccccn3)CC2)cc1 | inconclusive: 31.6 µM [inhibitor, partial curve] | – |
| COc1ccc(NC(=O)CN(c2ccc(C)cc2)S(=O)(=O)c2cccc3nonc23)cc1OC | – | inactive: 5.65% |
| O=C(/C=C/c1ccc(-c2ccccc2[N+](=O)[O-])o1)c1ccccc1 | inconclusive: 39.8 µM [inhibitor, partial curve] | – |
| O=C(N/N=C/c1ccc(O)c(O)c1)N/N=C/c1ccc(O)c(O)c1 | active: 35.5 µM | – |
| O=NN1CCN(c2ccncc2S(=O)(=O)N2CCCCC2)CC1 | inconclusive: 89.1 µM [inhibitor, single point] | – |
| Oc1ccc(C=Nc2cccc3ccccc23)c(O)c1 | – | inactive: -10.4% |
| Cc1cccc(NC(=O)C(=O)NCC2CCCN2S(=O)(=O)c2ccccc2)c1 (stereo unspecified) | – | inactive: 23.4% |
| CC(C)CCC(CCNCc1ccccn1)c1ccc(Cl)cc1 (stereo unspecified) | inconclusive: 56.2 µM [inhibitor, partial curve, poor fit] | – |
